Test results: PubChem BioAssay AID488969 (Vanderbilt High Throughput Screening Facility, 2010)
The full ranking holds about 110,000 compounds; the median of “z-score” is about -0.1, and the highest 2% start at about 2. The list shows a part of the results. Calls of active or inactive are those of the source.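 How the source made its calls: active means z-score in the third read window above 3 or below -3; inactive means the rest.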

Target: Metabotropic glutamate receptor 8 (Rattus norvegicus) (UniProt P70579)
Assay: mGluR8 Gi/Go-coupled signaling modulation – cell-based, rat, thallium flux, HTS, primary screen (AID 488969)
Details: HEK293 rat mGluR8, GIRK (G protein-gated inwardly rectifying potassium channel) thallium flux, FluoZin2; at 10 µM; stronger effect = higher value; submaximal glutamate (EC20) added with thallium

UniProt P70579, sequence (P70579 whole entry, looked up): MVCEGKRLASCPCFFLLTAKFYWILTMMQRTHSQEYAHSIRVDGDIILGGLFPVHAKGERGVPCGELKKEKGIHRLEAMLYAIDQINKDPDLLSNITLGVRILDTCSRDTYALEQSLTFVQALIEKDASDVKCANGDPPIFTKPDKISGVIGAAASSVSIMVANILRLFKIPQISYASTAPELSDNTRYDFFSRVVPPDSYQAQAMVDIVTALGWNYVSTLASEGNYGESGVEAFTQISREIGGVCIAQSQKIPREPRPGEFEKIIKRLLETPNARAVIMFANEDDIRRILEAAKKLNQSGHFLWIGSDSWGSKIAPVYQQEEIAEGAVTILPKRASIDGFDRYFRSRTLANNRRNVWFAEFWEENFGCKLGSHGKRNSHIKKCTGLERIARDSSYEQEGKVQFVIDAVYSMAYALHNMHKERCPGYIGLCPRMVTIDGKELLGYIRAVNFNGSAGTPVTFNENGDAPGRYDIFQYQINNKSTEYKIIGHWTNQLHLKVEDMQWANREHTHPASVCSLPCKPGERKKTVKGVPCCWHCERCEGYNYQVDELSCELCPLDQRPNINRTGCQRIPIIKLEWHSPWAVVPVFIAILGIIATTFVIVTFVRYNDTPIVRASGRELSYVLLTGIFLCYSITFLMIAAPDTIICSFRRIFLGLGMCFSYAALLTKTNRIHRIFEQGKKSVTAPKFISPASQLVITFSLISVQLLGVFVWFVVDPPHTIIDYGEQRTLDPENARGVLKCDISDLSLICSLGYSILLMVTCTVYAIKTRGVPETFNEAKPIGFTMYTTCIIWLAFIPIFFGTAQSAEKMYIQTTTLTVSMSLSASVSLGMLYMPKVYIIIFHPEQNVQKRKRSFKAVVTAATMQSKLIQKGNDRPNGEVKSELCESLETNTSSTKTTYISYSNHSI

SMILES | z-score
Cn1cc(Br)cc2nc(C(F)(F)F)nc1-2 | 0.971
CCN(CC)S(=O)(=O)c1ccc(N2CCOCC2)c(NC(=O)c2cccc3ccccc23)c1 | -0.482
CCN(CC)Cc1nc2c(c(=O)[nH]1)C1(CCCCC1)Cc1ccccc1-2 | -0.249
CC(C)c1ccc(S(=O)(=O)c2cn(Cc3ccc(F)cc3)c3cc4c(cc3c2=O)OCO4)cc1 | -0.241
CCCc1nc(SCC(=O)N2CCN(c3ccccc3)CC2)c2c(=O)n(C)c(=O)n(C)c2n1 | 2.39
Cc1cccc(OCCn2c(-c3ccco3)nc3ccccc32)c1 | -0.129
Cc1cc(C)cc(C(=O)Oc2coc(CSc3nnc(NC(=O)C4CC4)s3)cc2=O)c1 | 0.0207
O=C(N/C(=N\O)c1ccccc1)Nc1ccc(Cl)cc1 | 2.01
Cc1nn(CCCC(=O)Nc2sc3c(c2C#N)CCC3)c(C)c1[N+](=O)[O-] | -0.234
COc1ccc(C(=O)NCc2nnc(SCC(=O)N3CCCCC3)o2)cc1OC | 0.406
Cc1ccc(C(=O)COC(=O)CCN2C(=O)C3C4CC(C(Br)C4Br)C3C2=O)cc1 (stereo not drawn) | -0.128
Cc1[nH]c2ccc(C(=O)OCCN(C)C)cc2c1C | 0.546
CC(C)COc1ccc(C(=O)OCCN2CCOCC2)cc1 | 0.66
O=C(NNC(=S)Nc1ccc(Cl)cc1Cl)C1CC1 | -0.111
COc1cccc(NC(=O)C2CC(=O)N(C)C(=Nc3cccc(F)c3)S2)c1 (stereo not drawn) | -0.232
COC(=O)[C@H]1C2CCC(C(=O)OC)(CC2)[C@H]1C(=O)OC | -0.0401
Cc1c2cnn(CC(=O)Nc3cccc(C(F)(F)F)c3)c(=O)c2c(C)n1Cc1ccccc1F | 0.163
CCc1cc2cc(C(=O)Nc3ccc(C)cc3)sc2s1 | -0.00392
Cc1ccc(-n2c(CNc3ccc(F)cc3)nnc2SCC(N)=O)cc1 | 0.202
CCCCNC(=O)COC(=O)c1cc(Br)ccc1Cl | -0.148
COc1ccc(Cl)cc1NC(=O)CSc1nncn1-c1cccnc1 | -0.487
CSc1ncc(Cl)c(C(=O)Nc2ccc(S(=O)(=O)N3CCOCC3)cc2)n1 | 0.162

SMILES | z-score
O=C(c1ccc(Cl)c([N+](=O)[O-])c1)N1CCN(c2ccccn2)CC1 | -0.0404
O=C(CSc1ccc2nnc(-c3ccncc3)n2n1)NCc1ccco1 | -0.149
COC(=O)C1=C(C)OC(N)=C(C#N)C1c1ccc(OC)c(CSc2ccccn2)c1 (stereo not drawn) | -0.499
CC(C)(C)c1ccc(OCC(=O)NCc2ccco2)c(Br)c1 | 0.144
Cc1ccc(-c2cc(C(=O)Nc3nn[nH]n3)c3ccccc3n2)cc1 | -0.104
C=C(C)COc1ccc(-c2n[nH]c(C)c2Oc2ccccc2OC)c(O)c1 | -0.505
O=C(ON=C1CCN(S(=O)(=O)c2ccccc2)CC1)c1ccc(Cl)cc1 | 0.309
Cc1ccsc1/C=N/NC(=O)C1CC(=O)N(c2ccccc2)C1 (stereo not drawn) | 0.243
COc1cc(SC)ccc1C(=O)NCc1ccccc1 | -0.277
N#CC1=C(N)NC(SCC(=O)Nc2ccccc2)=C(C#N)C12CCCCC2 | -0.252
CS(=O)(=O)NCc1nnc(SCC(=O)NC2CCCCC2)n1-c1ccc(F)cc1 | 0.263
CS(=O)(=O)NCCOc1ccc(S(=O)(=O)N2CCCc3ccccc32)cc1 | -0.169
Cc1csc2nc(CSc3nc4ccccc4o3)c(Br)n12 | -0.249
COc1ccccc1N1CCN(C(=O)C2CCCO2)CC1 (stereo not drawn) | -0.173
O=C1N/C(=N/S(=O)(=O)c2ccccc2)S/C1=C/c1cccnc1 | -1.23
NS(=O)(=O)c1ccc(CCNC(=O)C2CCCN(S(=O)(=O)c3cccnc3)C2)cc1 (stereo not drawn) | 1.08
CC(=O)c1cccc(S(=O)(=O)NCC2CCCCC2)c1 | 0.0227
NC1=NC2(CCCCC2)N(c2cccc(Cl)c2)C(N)=N1 | 0.453
O=C(CCS(=O)(=O)c1cccc2nsnc12)NC1CCCCCC1 | -0.156
C=CCNC(=O)COc1ccc(S(=O)(=O)NC2CCCCC2)cc1 | -0.116
Cc1ccccc1N=C1NC(=O)CC(c2ccccc2)S1 (stereo not drawn) | -0.139
Clc1ccc(-n2ncc3c(NCc4ccco4)ncnc32)cc1 | 0.653

SMILES | z-score
COc1ccc(-n2c3nc4ccccc4nc3c3c(=N)oc(C)nc32)cc1 | -0.388
COc1cccc(CNC(=O)C2CCN(S(=O)(=O)c3ccccc3)CC2)c1 | -0.0818
CC(=O)OCc1c(C(F)(F)F)nn(C)c1Sc1ccccc1 | -0.0783
CC1(C)Cc2nc3sc4c(=O)n(Cc5ccccc5)cnc4c3cc2CS1 | -0.805
C/C(=N\OCC(=O)Nn1c(C)nc2ccccc2c1=O)c1ccccc1 | -0.337
Cc1ccc(Cn2nnnc2CN2CCC(NC(=O)c3ccc(Br)cc3)CC2)cc1 | -0.256
O=C(CN1CCCCC1)Nc1ccccc1 | 0.0411
CCn1c(SCC(=O)Nc2ccc(NC(=O)c3ccco3)cc2)nnc1-c1cccs1 | -0.0846
CC(C)(C)C(=O)C[n+]1ccc(C(N)=O)cc1 | 0.0103
CCOC(=O)N1CCN(C(=O)C2CC(=O)N(c3ccc(OC)cc3)C2c2ccc(OC)cc2)CC1 (stereo not drawn) | -0.0821
COc1ccc(-c2nc3n(c2Br)CCC3)cc1 | 0.254
COc1cc(NC(=O)COC(=O)/C=C/c2c(C)nn(-c3ccc(F)cc3)c2Cl)cc(OC)c1 | -0.0533
COC(=O)c1sccc1NC(=O)c1ccncc1 | -0.749
O=C(O)C1CCCCC1C(=O)Nc1nc(-c2cccs2)cs1 (stereo not drawn) | -1.12
CCn1cc(/C=N/NC(=O)c2ccc3c(c2)OCO3)c(C)n1 | -0.156
O=C(NS(=O)(=O)c1ccc(NC(=O)C2CCCO2)cc1)c1ccccc1 (stereo not drawn) | 0.199
C(/C=C/c1ccco1)=N/N1CCN(c2ccccc2)CC1 | -1.12
CCn1c(SCC(=O)Nc2sc3c(c2C#N)CCCC3)nnc1-c1ccco1 | -0.179
CC(C)c1ccc(N2C(=O)CSC23C(=O)N2CCCc4cccc3c42)cc1 (stereo not drawn) | -0.833
CCOC(=O)/C=C(\C)Sc1cc(=O)oc2ccccc12 | -1.34
CSC(=NNC(=O)c1ccccc1O)SC | -0.162
Cn1c(OCc2ccc3c(c2)OCO3)nc2c1c(=O)n(Cc1cccc(Cl)c1)c(=O)n2C | -0.424

SMILES | z-score
CCCCCNC(=O)c1ccc2c(=O)[nH]c3c(C(=O)NCC4CCCO4)sc(=S)n3c2c1 (stereo not drawn) | active: -3.38
Cc1cccn2c(=O)c3cc(C#N)c(=NC(=O)c4ccncc4)n(CCCOC(C)C)c3nc12 | 0.000675
COc1cccc2cc(C(C)N(CCCN3CCOCC3)C(=O)Nc3ccccc3)oc12 (stereo not drawn) | -1.53
COc1ccc(C(=O)OCC(=O)Nc2ccc(Cl)c(C(F)(F)F)c2)c(OC)c1OC | 0.41
CCOC(=O)/C(=N\Nc1cc(Cl)ccc1Cl)N1CCN(C)CC1 | -0.132
CCSc1nnc(NC(=O)CSc2nnc(Cc3cccn3C)n2-c2ccc(F)cc2)s1 | 0.265
CCC(=O)N1CCc2cc(S(=O)(=O)NCCC(=O)NC3CCCc4ccccc43)ccc21 (stereo not drawn) | 0.288
COc1ccc(Cc2nnc(N/N=C/c3ccc(O)cc3)[nH]c2=O)cc1OC | -0.41
CCN1C(=O)c2cccc3c(NC(=O)c4ccccc4)ccc1c23 | -0.427
COc1cc(C=Nc2cccc([N+](=O)[O-])c2C)ccc1OC(C)=O | -0.417
CCCOc1ccc(-c2c(C(=O)N/N=C/c3ccc(OCC)cc3)nnn2-c2nonc2N)cc1 | -0.25
Cc1nc2sc(C(c3ccc(F)cc3)N3CCN(C(=O)c4ccco4)CC3)c(O)n2n1 (stereo not drawn) | -0.218
CCOc1cccc(SCc2noc(C(=O)NC(C)C)c2C(=O)O)c1 | -0.448
Cc1ccc(C)c2[nH]c(=O)c(CN(CCN3CCCC3)C(=O)Nc3ccc(F)cc3)cc12 | 0.644
COc1ccc(C(=O)N/N=C/c2ccc(OC)c(OS(=O)(=O)c3ccccc3)c2)cc1 | 0.165
Cc1nn(C)c(Oc2ccccc2)c1CCNS(=O)(=O)c1ccc(F)cc1 | -0.0496
Cc1ccc2nc(SC(C)C(=O)NCc3ccc4c(c3)OCO4)[nH]c2c1 (stereo not drawn) | -0.22
C[C@H](C(=O)O)c1n[nH]c(=O)c2ccccc12 | -0.102
Cc1cc(N2CCCCC2)nc(SCc2ccc(C#N)cc2)n1 | -0.719
O=C(C1CCCN(S(=O)(=O)c2ccc(Br)s2)C1)N1CCCCCC1 (stereo not drawn) | -1.4
COc1cc(CCC(=O)OCC(=O)Nc2c(C)cccc2C(C)C)cc(OC)c1OC | 0.216
O=C(COCc1nc2ccccc2c(=O)[nH]1)NCC1CCCCC1 | 0.366

SMILES | z-score
CC(=O)Nc1ccc(C(=O)N2CCCC2)cc1 | -0.0468
CC(C)(C)c1cc(C(=O)N/N=C/c2ccccc2O)n(-c2ccccc2)n1 | -0.556
COC(=O)[C@H](C)NC(=O)COc1ccccc1 | -0.166
COc1ccccc1C(c1nnnn1Cc1ccccc1)N1CCN(C2CCCC2)CC1 (stereo not drawn) | 0.694
Cc1ccc(-c2nc3sc4c(c3c(=O)n2N)CCCC4)cc1 | -0.481
N#Cc1ccccc1NC(=O)C1CC(=O)N(c2ccc3c4c(cccc24)CC3)C1 (stereo not drawn) | -0.61
CCc1ccccc1NC(=O)Cn1cccc1C1=NC(c2ccccc2)CO1 (stereo not drawn) | -0.345
COC(=O)c1c(N)c(C#N)c(C)n1-c1ccccc1 | -0.272
CC1(C)CC(=O)C(C=NC2CC(C)(C)NC(C)(C)C2)=C(O)C1 | -0.181
CC(NS(=O)(=O)c1cccc(Cl)c1)C(=O)Nc1ccc(-c2nc3ccccc3s2)cc1 (stereo not drawn) | -0.0501
COc1ccc(CN2C(=O)NC3(CCOc4ccccc43)C2=O)cc1F (stereo not drawn) | -0.225
CC(C)OC(=O)CCC(=O)Nc1nc2ccccc2s1 | 0.26
COCCn1c(SCC(=O)N(C(C)C)C(C)C)nnc1-c1cc2ccccc2cc1O | 0.816
CCC(C)NC(C(=O)Nc1ccc(Cl)c([N+](=O)[O-])c1)c1ccccc1 (stereo not drawn) | -0.114
CCc1ccccc1NC(=O)c1ccoc1C | -0.205
O=C(NC(NC(=S)N1CCOCC1)C(Cl)(Cl)Cl)c1ccc(Cl)cc1 (stereo not drawn) | -0.205
Cc1csc2ncc(C(=O)Nc3ccon3)c(=O)n12 | 0.098
O=C(N/N=C/c1ccc[nH]1)c1cccnc1 | -0.0606
CC(C)(C)NS(=O)(=O)c1ccc2c(c1)oc(=O)c1cc(S(=O)(=O)NC(C)(C)C)ccc12 | -0.0322
CCC(CO)Nc1ncnc2c1cnn2-c1ccc(OC)cc1 (stereo not drawn) | 0.314
